Source: the supplement of paper PMC3334620
Over roughly 33,000 sequences, “E-score (-0.5 to 0.5)” has its median near -0.012; the highest 2% begin near 0.27. This is one part of the list.

What follows are sequences tested against T1, Vhr1 (UniProt P40522) (assay: PBM E-score (8-mer binding enrichment) (E-score (-0.5 to 0.5)); higher = stronger / more preferred TF binding; most listed sequences are background and not binding sites). Conditions: protein concentration: 200 nM; construct: GST-full length.
T1 sequence: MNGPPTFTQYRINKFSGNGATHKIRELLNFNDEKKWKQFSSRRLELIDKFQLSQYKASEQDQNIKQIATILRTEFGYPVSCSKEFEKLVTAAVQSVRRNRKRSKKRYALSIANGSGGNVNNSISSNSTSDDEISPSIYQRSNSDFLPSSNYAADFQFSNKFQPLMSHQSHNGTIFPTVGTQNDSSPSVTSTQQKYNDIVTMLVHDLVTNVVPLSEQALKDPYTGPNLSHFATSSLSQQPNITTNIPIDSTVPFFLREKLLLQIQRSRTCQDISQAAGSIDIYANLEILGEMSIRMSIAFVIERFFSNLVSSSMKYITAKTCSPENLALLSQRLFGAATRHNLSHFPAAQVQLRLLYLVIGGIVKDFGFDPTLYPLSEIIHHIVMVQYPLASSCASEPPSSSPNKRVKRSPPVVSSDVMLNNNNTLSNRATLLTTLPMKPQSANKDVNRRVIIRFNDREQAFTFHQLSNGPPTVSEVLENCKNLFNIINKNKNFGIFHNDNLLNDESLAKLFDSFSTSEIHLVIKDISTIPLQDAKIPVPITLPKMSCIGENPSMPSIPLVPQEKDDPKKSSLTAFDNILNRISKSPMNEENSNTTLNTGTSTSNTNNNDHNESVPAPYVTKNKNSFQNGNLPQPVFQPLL
Outline: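 Detection of bound protein used fluorescent anti-GST, with scans normalised by masliner. The proteins were GST-tagged yeast transcription factors applied at about 100-200 nM to universal all-10-mer Agilent arrays made double-stranded by primer extension. Each ungapped eight-base word, pooled with its reverse complement, was scored with an E-score from the Universal PBM Analysis Suite.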

Row | Sequence | PBM E-score
1 | CTATTGCC | -0.181
2 | AACACTGA | 0.124
3 | AACGGAAG | 0.00071
4 | CCGTTCAA | -0.0693
5 | GTAATCCA | 8e-05
6 | AGAATCAA | 0.0929
7 | CCGAAACC | -0.129
8 | ACTCCATG | 0.251
9 | CACGCTAG | -0.0447
10 | GGGCTAAC | -0.138
11 | AACTCATC | 0.209
12 | CGGCGTGC | -0.0246
13 | ATTAGTTA | 0.143
14 | CAGCCGAC | -0.0193
15 | TCCTTAGA | -0.227
16 | CACGTCCA | -0.107
17 | AGACCTGA | -0.0508
18 | ATCGCGCA | -0.0739
19 | GAACACAA | -0.00229
20 | GTCATCAC | 0.229
21 | GCCTCTCC | -0.0997
22 | AATATTAG | 0.135

Row | Sequence | PBM E-score
23 | ATGCTGAA | 0.0202
24 | AAGCCATC | 0.0852
25 | ACAGTAGG | 0.075
26 | AGCGCACG | -0.0655
27 | ATTCAGTG | 0.0826
28 | AGACTATC | -0.0494
29 | TAGGGAGA | 0.0563
30 | AGGCGTGC | -0.0791
31 | GAGGGAGC | -0.215
32 | CCGGCGAG | 0.144
33 | AGGTTTAA | -0.0358
34 | CGTCAGTA | 0.02
35 | AAAACGAG | -0.281
36 | ATCCCCTG | -0.0897
37 | ACTGCTTG | -0.051
38 | ACTACAGA | 0.185
39 | TGATATAA | -0.163
40 | ACTTCCAT | -0.079
41 | GGGTCCTA | -0.0725
42 | CATTGACC | 0.0487
43 | CGACAACA | 0.128
44 | ATTTTCCA | -0.191

Row | Sequence | PBM E-score
45 | GGTCGCAC | 0.0284
46 | CTTCATAA | 0.0573
47 | CCACTAGG | -0.0941
48 | AATACCGC | 0.191
49 | TGCCCGAA | -0.112
50 | GAGAAGCC | -0.184
51 | ACGCCTTA | -0.13
52 | GTATCCGA | 0.0575
53 | CCACGGAA | -0.0432
54 | GAAGTCGC | 0.0553
55 | GAGCTACC | -0.0728
56 | GCTGTGCC | 0.0888
57 | CCAATAAG | -0.27
58 | AGTTCGAA | -0.0122
59 | CTTCGGTA | -0.205
60 | GCCTCTTA | -0.0439
61 | GTAACAAA | 0.0465
62 | CACTGACC | 0.0246
63 | CTCTCAAC | 0.00283
64 | AGAGGATG | -0.106
65 | AACACAGG | 0.0235
66 | ACCTCACG | -0.0286

Row | Sequence | PBM E-score
67 | CTAATGCC | -0.0404
68 | GGTATCGA | 0.19
69 | CGTGAACC | -0.0372
70 | ACCGTATC | 0.152
71 | CATATAAG | -0.0564
72 | CGATTACC | 0.0034
73 | AGGCTAAG | -0.166
74 | AGACAAAT | -0.0582
75 | CTTCGCTA | -0.115
76 | TCAGAGAA | 0.102
77 | ACCTGTCG | -0.0197
78 | CGTCGAAG | 0.0798
79 | CGTCCATC | 0.0356
80 | CGAAGATC | -0.173
81 | AGTGGTAA | -0.0324
82 | ATTGAGAA | 0.113
83 | ACCGTCGA | 0.029
84 | GGCGTAAA | -0.148
85 | TGGGCCCA | 0.0911
86 | TAACCAAA | 0.0519
